{"source": "the supplement of paper PMC8728848", "test_in_all_cases": "glycan array binding signal (z-score within array); higher = stronger binding", "conditions_in_all_cases": "glycan notation: IUPAC condensed, linker removed", "key": {"Neu5Ac(a2-8)Neu5Ac": {"target": "Neu5Ac(a2-8)Neu5Ac", "in_short": "(§1)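 Glycan array data were curated from 3228 arrays in the Consortium for Functional Glycomics database and kept only where the protein sequence was available. Glycan names were converted to IUPAC-condensed notation, and columns mapping to the same glycan were averaged. The binding signal is a within-array Z-score, averaged across arrays of the same protein sequence at different concentrations or buffers and across linkers. Negative Z-scores can be read as non-binding.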"}, "[1]": {"target": "Neu5Ac(a2-8)Neu5Ac(a2-3)Gal(b1-3)GalNAc(b1-4)[Neu5Ac(a2-3)]Gal(b1-4)Glc", "in_short": "as §1"}, "[2]": {"target": "Neu5Ac(a2-8)Neu5Ac(a2-3)Gal(b1-3)GalNAc(b1-4)[Neu5Ac(a2-8)Neu5Ac(a2-3)]Gal(b1-4)Glc", "in_short": "as §1"}, "[3]": {"target": "Neu5Ac(a2-8)Neu5Ac(a2-3)Gal(b1-4)Glc", "in_short": "as §1"}, "[4]": {"target": "Neu5Ac(a2-8)Neu5Ac(a2-3)Gal(b1-4)GlcNAc", "in_short": "as §1"}, "[5]": {"target": "Neu5Ac(a2-8)Neu5Ac(a2-3)[Gal(b1-3)GalNAc(b1-4)]Gal(b1-4)Glc", "in_short": "as §1"}, "[6]": {"target": "Neu5Ac(a2-8)Neu5Ac(a2-3)[GalNAc(b1-4)]Gal(b1-4)Glc", "in_short": "as §1"}, "[7]": {"target": "Neu5Ac(a2-8)Neu5Ac(a2-8)Neu5Ac", "in_short": "as §1"}, "[8]": {"target": "Neu5Ac(a2-8)Neu5Ac(a2-8)Neu5Ac(a2-3)Gal(b1-4)Glc", "in_short": "as §1"}, "[9]": {"target": "Neu5Ac(a2-8)Neu5Ac(a2-8)Neu5Ac(a2-3)[Gal(b1-3)GalNAc(b1-4)]Gal(b1-4)Glc", "in_short": "as §1"}, "[10]": {"target": "Neu5Ac(a2-8)Neu5Ac(a2-8)Neu5Ac(a2-3)[GalNAc(b1-4)]Gal(b1-4)Glc", "in_short": "as §1"}, "[11]": {"target": "Neu5Ac(a2-8)Neu5Ac(a2-8)Neu5Ac(a2-8)Neu5Ac(a2-3)[GalNAc(b1-4)]Gal(b1-4)Glc", "in_short": "as §1"}, "[12]": {"target": "Neu5Ac(a2-8)Neu5Gc(a2-3)Gal(b1-4)GlcNAc", "in_short": "as §1"}, "[13]": {"target": "Neu5Ac(b2-6)Gal(b1-4)GlcNAc", "in_short": "as §1"}, "Neu5Ac(b2-6)GalNAc": {"target": "Neu5Ac(b2-6)GalNAc", "in_short": "as §1"}, "[14]": {"target": "Neu5Ac9Ac(a2-3)Gal(b1-3)GlcNAc", "in_short": "as §1"}, "[15]": {"target": "Neu5Ac9Ac(a2-3)Gal(b1-4)GlcNAc", "in_short": "as §1"}, "[16]": {"target": "Neu5Ac9Ac(a2-6)Gal(b1-4)GlcNAc", "in_short": "as §1"}, "[17]": {"target": "Neu5Gc(a2-3)Gal(b1-3)GlcNAc", "in_short": "as §1"}, "[18]": {"target": "Neu5Gc(a2-3)Gal(b1-3)[Fuc(a1-4)]GlcNAc", "in_short": "as §1"}, "Neu5Gc(a2-3)Gal(b1-4)Glc": {"target": "Neu5Gc(a2-3)Gal(b1-4)Glc", "in_short": "as §1"}, "[19]": {"target": "Neu5Gc(a2-3)Gal(b1-4)GlcNAc", "in_short": "as §1"}, "[20]": {"target": "Neu5Gc(a2-3)Gal(b1-4)GlcNAc(b1-3)Gal(b1-4)GlcNAc(b1-2)Man(a1-3)[Neu5Gc(a2-3)Gal(b1-4)GlcNAc(b1-3)Gal(b1-4)GlcNAc(b1-2)Man(a1-6)]Man(b1-4)GlcNAc(b1-4)GlcNAc", "in_short": "as §1"}, "[21]": {"target": "Neu5Gc(a2-3)Gal(b1-4)[Fuc(a1-3)]GlcNAc", "in_short": "as §1"}, "[22]": {"target": "Neu5Gc(a2-6)Gal(b1-4)GlcNAc", "in_short": "as §1"}, "Neu5Gc(a2-6)GalNAc": {"target": "Neu5Gc(a2-6)GalNAc", "in_short": "as §1"}, "[23]": {"target": "Neu5Gc(a2-8)Neu5Ac(a2-3)Gal(b1-4)GlcNAc", "in_short": "as §1"}, "[24]": {"target": "Neu5Gc(a2-8)Neu5Gc(a2-3)Gal(b1-4)GlcNAc", "in_short": "as §1"}, "[25]": {"target": "Neu5Gc(a2-8)Neu5Gc(a2-3)Gal(b1-4)GlcNAc(b1-3)Gal(b1-4)GlcNAc", "in_short": "as §1"}, "[26]": {"target": "Neu5Gc(a2-8)Neu5Gc(a2-6)Gal(b1-4)GlcNAc", "in_short": "as §1"}, "[27]": {"target": "Neu5Gc(b2-6)Gal(b1-4)GlcNAc", "in_short": "as §1"}}, "note": "The list shows a part of the results."}
{"binder": "CBM40 CPF071 (Clostridium perfringens) (protein) MAHHHHHHVGTGSNDDDDKSPDPMLSSLGEYKDINLESSNASNITYDLEKYKNLDEGTIVVRFNSKDSKIQSLLGISNSKTKNGYFNFYVTNSRVGFELRNQKNEGNTQNGTENLVHMYKDVALNDGDNTVALKIEKNKGYKLFLNGKMIKEVKDTNTKFLNNIENLDSAFIGKTNRYGQSNEYNFKGNIGFMNIYNEPLGDDYLLSKTGETK", "values": [{"measurement": "glycan array binding signal (z-score)", "setting": "Neu5Ac(a2-8)Neu5Ac", "value": 0.538}, {"measurement": "glycan array binding signal (z-score)", "setting": "[1]", "value": -0.205}, {"measurement": "glycan array binding signal (z-score)", "setting": "[2]", "value": 0.004}, {"measurement": "glycan array binding signal (z-score)", "setting": "[3]", "value": -0.44}, {"measurement": "glycan array binding signal (z-score)", "setting": "[4]", "value": 0.138}, {"measurement": "glycan array binding signal (z-score)", "setting": "[5]", "value": 0.004}, {"measurement": "glycan array binding signal (z-score)", "setting": "[6]", "value": -0.152}, {"measurement": "glycan array binding signal (z-score)", "setting": "[7]", "value": -0.128}, {"measurement": "glycan array binding signal (z-score)", "setting": "[8]", "value": -0.245}, {"measurement": "glycan array binding signal (z-score)", "setting": "[9]", "value": -0.228}, {"measurement": "glycan array binding signal (z-score)", "setting": "[10]", "value": -0.206}, {"measurement": "glycan array binding signal (z-score)", "setting": "[11]", "value": -0.358}, {"measurement": "glycan array binding signal (z-score)", "setting": "[12]", "value": -0.502}, {"measurement": "glycan array binding signal (z-score)", "setting": "[13]", "value": 0.126}, {"measurement": "glycan array binding signal (z-score)", "setting": "Neu5Ac(b2-6)GalNAc", "value": -0.314}, {"measurement": "glycan array binding signal (z-score)", "setting": "[14]", "value": 1.21}, {"measurement": "glycan array binding signal (z-score)", "setting": "[15]", "value": 0.24}, {"measurement": "glycan array binding signal (z-score)", "setting": "[16]", "value": -0.331}, {"measurement": "glycan array binding signal (z-score)", "setting": "[17]", "value": 0.189}, {"measurement": "glycan array binding signal (z-score)", "setting": "[18]", "value": 0.909}, {"measurement": "glycan array binding signal (z-score)", "setting": "Neu5Gc(a2-3)Gal(b1-4)Glc", "value": 0.235}, {"measurement": "glycan array binding signal (z-score)", "setting": "[19]", "value": 1.51}, {"measurement": "glycan array binding signal (z-score)", "setting": "[20]", "value": 2.46}, {"measurement": "glycan array binding signal (z-score)", "setting": "[21]", "value": -0.12}, {"measurement": "glycan array binding signal (z-score)", "setting": "[22]", "value": -0.336}, {"measurement": "glycan array binding signal (z-score)", "setting": "Neu5Gc(a2-6)GalNAc", "value": 0.037}, {"measurement": "glycan array binding signal (z-score)", "setting": "[23]", "value": -0.109}, {"measurement": "glycan array binding signal (z-score)", "setting": "[24]", "value": -0.362}, {"measurement": "glycan array binding signal (z-score)", "setting": "[25]", "value": 0.304}, {"measurement": "glycan array binding signal (z-score)", "setting": "[26]", "value": -0.613}, {"measurement": "glycan array binding signal (z-score)", "setting": "[27]", "value": -0.495}]}
